Each structure is given as a SMILES string. The campaign covered roughly 50,000 compounds. About 800 (1.6%) showed an effect of 50% or more. This is one part of the list.

This test has as its target Bcl-2-like protein 10 (Homo sapiens) (UniProt Q9HD36). Put plainly: TR3 peptide-Bcl-B binding displacers, biochemical primary FP assay, phenotype converters (AID 1240).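 Note: 0% = Bcl-B with tracer peptide and DMSO and 100% = tracer peptide lacking Bcl-B.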 The settings on record: GST-Bcl-B / FITC-TR3 peptide fluorescence polarization; stronger effect = higher value; compound at 3.75 mg/L. Background: Polarisation of emitted light reports the rotation of a fluorescent probe.
Chain of UniProt Q9HD36 (Q9HD36 whole entry, looked up): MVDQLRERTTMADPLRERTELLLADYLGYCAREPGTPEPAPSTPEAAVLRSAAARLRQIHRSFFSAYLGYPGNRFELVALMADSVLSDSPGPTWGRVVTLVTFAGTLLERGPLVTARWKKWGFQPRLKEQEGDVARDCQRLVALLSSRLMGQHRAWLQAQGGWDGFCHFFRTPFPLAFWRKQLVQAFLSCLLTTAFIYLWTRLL
For the compound `O=C(Nc1cc(C(F)(F)F)cc(C(F)(F)F)c1)c1ccc2c(c1)OCCO2`, the displacement was 8.8%.

As to `O=C1/C(=C\c2ccccc2OS(=O)(=O)c2ccccc2[N+](=O)[O-])SC(=S)N1Cc1ccccc1`, the displacement is -1.4%.

For the compound `CC(O)C(=O)NS(=O)(=O)c1ccccc1` (stereo not drawn), the displacement was found to be 9.6%.

`c1ccc(Cn2ncc3c(N4CCN(c5ccccn5)CC4)ncnc32)cc1`: the displacement was -7.6%.

For `COc1ccc2c(c1)-c1c(sn(-c3ccc(OC)c(OC)c3)c1=S)C(C)(C)N2`, the displacement amounted to 15.4%.

In the case of `COCCNC(=O)CN(c1ccc(C)cc1)S(C)(=O)=O`, the displacement amounted to 9.9%.

As to `O=C(Nc1nc(-c2ccccc2)cs1)c1ccc2c(c1)OCO2`, the displacement is 10.2%.

As for `COc1ccc(C(=O)Nc2ccc(S(=O)(=O)Nc3cc(OC)ncn3)cc2)c(OC)c1`, the displacement amounted to 10.1%.

As to `O=C(NCCCO)Nc1ccc2nc(-c3ccccc3)c(-c3ccccc3)nc2c1`, the displacement is -8.9%.

Turning to `COc1ccc(C2CC(C(F)(F)F)n3nc(C(=O)N4CCCC4)c(Cl)c3N2)cc1OC` (stereo not drawn), the displacement was determined as 7%.

Take `COc1ccccc1C(=O)Nc1ccc(Br)cc1`: the displacement came to 12.4%.

In the case of `O=C(Nc1cccc(Cl)c1Cl)c1ccc(CN2CCc3ccccc3C2)cc1`, the displacement is -2.7%.

With `COc1ccc(OC)c(NC(=O)C(=O)N/N=C/c2ccc(OC)cc2OC)c1`, the displacement was 12.9%.

`CCN(CC)c1ccc(/C=N/NC(=O)/C(=C\c2ccc3c(c2)OCO3)NC(=O)c2ccccc2)cc1`: the displacement stood at 30.3%.

Turning to `O=C1CSC(=S)N1c1ccc(F)c(Cl)c1`, the displacement was determined as 8.7%.

For the compound `CCOc1ccccc1NC(=O)CN(c1cc(OC)ccc1OC)S(C)(=O)=O`, the displacement worked out at 13.1%.

Turning to `Cc1ccc(/C=C2/SC(=S)N(NC(=O)c3ccccc3C)C2=O)cc1`, the displacement is -10.3%.

In the case of `O=C(Nc1ccc(OC(F)(F)F)cc1)c1cnn2c(C(F)(F)F)cc(-c3ccco3)nc12`, the displacement is -7.5%.

Turning to `O=C(N/N=C/c1cc2ccccc2[nH]1)c1ccccc1`, the displacement was found to be 8.7%.

On to `CCCCNC(=O)n1ccc(C(=O)Nc2ccc(C)cc2C)n1`, for which the displacement stood at 4.5%.

In the case of `COc1cc(OC)c([N+](=O)[O-])cc1/C=C1/C(=O)NC(=O)N(c2ccc(Br)cc2)C1=O`, the displacement came to 8.8%.

Take `COc1ccc(C/C(N)=N/OC(=O)c2cccc([N+](=O)[O-])c2)cc1`: the displacement came to 8.1%.

With `O=c1cc(-c2ccc([N+](=O)[O-])cc2)nc2cc(-c3cccc(F)c3)[nH]n12`, the displacement was determined as 13.2%.

Take `CCOc1cc(-c2ccc3c(c2)OCO3)cc(=O)c2c(C)oc(C)c12`: the displacement was 4.7%.

On to `Clc1ccccc1CN1CCN(N=Cc2ccc(Br)cc2)CC1`, for which the displacement is -1.3%.

Turning to `Cc1ccc(C)c(-c2csc(NC(=O)C3C4CCC(C4)C3C(=O)O)n2)c1` (stereo not drawn), the displacement was determined as 1%.

In the case of `CCOc1c(Cl)cc(/C=C2\C(=O)NC(=O)N(c3ccc(C)cc3)C2=O)cc1OC`, the displacement was -11.3%.

Turning to `O=c1oc(/C=C\c2ccccc2)nc2ccc(Br)cc12`, the displacement was 10.7%.

With `Oc1ccccc1C1=Nc2ccccc2N=C(C(F)(F)F)C1`, the displacement is 4%.

Turning to `COc1ccc(C(=O)Nc2ccccc2C(=O)Nc2ccc(C(=O)O)cc2)cc1`, the displacement was found to be 25.2%.

`O=S(=O)(c1ccccc1)N1CCN(C/C=C/c2ccccc2)CC1`: the displacement is -2.3%.

For the compound `Cc1ccc(/C=C2\N=C(c3ccc(Cl)cc3)OC2=O)o1`, the displacement stood at 11.6%.

Regarding `O=C1/C(=C/c2c(F)cccc2Cl)SC(=S)N1CCc1ccccc1`, the displacement came out at 12.1%.

For the compound `C=CCN1C(=O)/C(=C\C(Br)=C\c2ccccc2)SC1=S`, the displacement turned out to be 6.5%.

Regarding `CCCOc1ccc(N2C(=O)CC(N(Cc3ccco3)C(=S)Nc3ccccc3)C2=O)cc1` (stereo not drawn), the displacement is -3.2%.

For the compound `O=C1C(=O)N(c2cccc(Br)c2)C(c2ccc([N+](=O)[O-])cc2)/C1=C(/O)c1ccccc1` (stereo not drawn), the displacement was -0.1%.

For `CC(=O)Nc1cc(C(=O)O)cc(C(=O)O)c1`, the displacement was -3.5%.

For the compound `COc1ccc(N(CC(=O)Nc2ccccc2Cl)S(=O)(=O)c2ccc(OC)c(OC)c2)cc1`, the displacement is -41.6%.

For `Cc1ccccc1-n1c(O)c(C=NCCCn2ccnc2)c(=O)[nH]c1=O`, the displacement is -3.4%.

Consider `O=C(Nc1ccc(-c2nc3ncccc3o2)cc1)c1ccc(Br)o1`, for which the displacement is -1.9%.

For the compound `CCN(CC)c1ccc(N2C(=O)/C(=C/c3ccccc3Cl)SC2=S)cc1`, the displacement is 0.3%.

`COc1ccc(C(N)=O)cc1NC(=O)C(C)Oc1ccccc1` (stereo not drawn): the displacement was -0.2%.

With `O=C(O)c1cc(NC(=O)c2ccc(Cl)c(Cl)c2)cc(C(=O)O)c1`, the displacement was found to be 4.5%.

On to `COc1ccc(Cc2noc(-c3ccc(Br)cc3)n2)cc1`, for which the displacement came to 3.5%.

On to `CC(C)(C)c1ccc(C(=O)NNC(=O)c2ccco2)cc1`, for which the displacement was -12.3%.

Regarding `CN1CCN(Cn2c(O)c(N=NC(=O)c3ccncc3)c3ccccc32)CC1`, the displacement is -3.7%.

With `O=C(/C=C/c1ccccc1)Nc1ccccc1I`, the displacement was found to be 2.3%.

As to `COc1cccc2cc(C(=O)Nc3ccc(I)cc3)c(=O)oc12`, the displacement turned out to be 12.7%.

As for `CCN(CC)c1ccc(C(=O)NCCc2ccccc2)cc1`, the displacement is -0.8%.

As to `COc1ccc(C)cc1NC(=O)c1cccc(I)c1`, the displacement was found to be 14.1%.

Turning to `CC1=NN(c2cccc(C(=O)O)c2)C(=O)/C1=C\c1cccc([N+](=O)[O-])c1`, the displacement turned out to be 6.2%.

With `COc1ccc(/C=N/N=C(\N)c2nonc2N)c(OC)c1`, the displacement amounted to 17.6%.

As for `COc1ccc(NC(=O)NCCOc2cc(C)ccc2C(C)C)cc1OC`, the displacement amounted to 18.1%.

Consider `O=C(NCCc1ccccc1)c1c(F)cccc1Cl`, for which the displacement was -9.1%.

Regarding `O=C(N=Nc1c(O)[nH]c2ccc(Br)cc12)c1ccc([N+](=O)[O-])cc1`, the displacement is 6.8%.

Consider `COc1ccccc1/C=N/N=C1/NC(=O)C(Cc2ccc(C)cc2)S1` (stereo not drawn), for which the displacement was -23.6%.

Take `Cc1ccc(OCC(=O)Nc2ccc(C(=O)OCC(C)C)cc2)c(C)c1`: the displacement amounted to 3.1%.

For the compound `O=C(CSc1nc2ccccc2s1)NCCO`, the displacement amounted to 21.2%.

As to `COc1ccc(/C=N/n2cnnc2SCc2ccccc2)cc1OC`, the displacement stood at 1%.

As to `CCN1CCN(CC(O)COc2ccc(Cl)cc2C)CC1` (stereo not drawn), the displacement is 6.6%.

`CCN1C(=O)/C(=C\c2ccccc2OS(=O)(=O)c2ccc(C)cc2)SC1=S`: the displacement came to 13.4%.

On to `COc1ccc(-c2ccc(/C=C3\C(=O)NN(c4ccc(Cl)c(Cl)c4)C3=O)o2)c([N+](=O)[O-])c1`, for which the displacement was found to be 0.8%.

As for `COC(=O)c1ccccc1NC(=O)c1ccccc1C`, the displacement is -6.5%.

On to `O=C(Nc1ccc(-c2ccc([N+](=O)[O-])cc2)cc1)c1cccs1`, for which the displacement is 10.1%.

For the compound `CC(C)N1C(=O)/C(=C\c2ccco2)SC1=S`, the displacement stood at 1.7%.

For `Cc1c(N2C(=O)S/C(=C\c3ccc(N(C)C)cc3)C2=O)c(=O)n(-c2ccccc2)n1C`, the displacement worked out at 2.5%.

For the compound `O=C(NC(=S)Nc1ccc2oc(-c3cccc4c(Br)cccc34)nc2c1)c1ccco1`, the displacement is 14.6%.

On to `Cc1ccc(N2C(=O)/C(=C/c3cc(C)n(C)c3C)C(=O)NC2=S)c(C)c1`, for which the displacement was 48.3%.

For `COc1ccc(-c2nc3c(n2O)CCC/C3=N\O)cc1OC`, the displacement was 16.6%.

Turning to `Cc1cccc(NC(=S)NNC(=O)c2cccc(C)c2)c1`, the displacement is -6.7%.

As to `O=C(Nc1ccccc1)Nc1nnc(-c2ccc(Br)cc2)s1`, the displacement was 9.1%.

As to `CC1CCC(N2CCN(C(=O)c3ccco3)CC2)CC1` (stereo not drawn), the displacement was determined as 10.9%.

As for `Cc1cccc(C)c1OCC(=O)N/N=C/c1ccc(O)c([N+](=O)[O-])c1`, the displacement is -7.4%.

As to `CC1(C)CC(=O)C=C(Nc2ccc(F)c(F)c2)C1`, the displacement was -3%.

Regarding `Cc1cc(-c2ccc(C=C3C(=O)N(C)C(=O)N(C)C3=O)o2)cc([N+](=O)[O-])c1C`, the displacement came to 1.7%.

Turning to `O=C1NN(c2ccc(Cl)cc2)C(=O)/C1=C\c1ccc(-c2ccc(Cl)c(C(=O)O)c2)o1`, the displacement stood at 22.1%.

As for `Cc1ccccc1OCC(=O)Nc1cc([N+](=O)[O-])ccc1Cl`, the displacement is -4.5%.

On to `O=C1NC(=S)S/C1=C\c1ccccc1OS(=O)(=O)c1ccc([N+](=O)[O-])cc1`, for which the displacement is 3.9%.

For `O=S(=O)(NC1c2ccccc2Oc2ccccc21)c1ccc(Cl)cc1`, the displacement stood at 1%.

Regarding `CN(C)C1(c2cccnc2)CS(=O)(=O)C1`, the displacement was -0.1%.

Take `CS(=O)(=O)N1CCN(c2ccc([N+](=O)[O-])c(N3CCCCC3)c2)CC1`: the displacement came out at 4.5%.

On to `COc1ccc(C(=O)/C=C/c2ccc3c(c2)OCO3)cc1`, for which the displacement is -4.6%.

`Brc1ccc(Sc2nc3ccccc3[nH]2)cc1`: the displacement is -3.2%.

In the case of `O=C1CC2c3ccccc3C1C1C(=O)N(CCO)C(=O)C21` (stereo not drawn), the displacement is -1.6%.

On to `CN=C(Nc1ccc(Cl)c(Cl)c1)SC1CC(=O)N(c2cccc(OC)c2)C1=O` (stereo not drawn), for which the displacement was -3.9%.

On to `CC(C)(C)C(=O)Nc1sc2c(c1C(=O)Nc1ccccc1)CCCCC2`, for which the displacement is -8.7%.

Turning to `O=c1c2ccccc2nc(/C=C/c2cccc([N+](=O)[O-])c2)n1Cc1ccccc1`, the displacement came out at 12.9%.

Turning to `Cc1ccnc(NC(=O)CCCOc2ccc(Cl)cc2Cl)c1`, the displacement was -11.3%.

Take `COc1cc(C(=O)N/N=C/c2ccsc2C)cc(OC)c1OC`: the displacement is -20.1%.

With `COc1ccccc1-c1nc(-c2cccc([N+](=O)[O-])c2)no1`, the displacement turned out to be 6.4%.

With `COC(=O)c1c(C)oc2cc(Br)c(OCc3ccc(F)cc3)cc12`, the displacement stood at 7.3%.

In the case of `COc1ccc(OC)c(C2=C/C(=C/c3cccc(OC)c3O)C(=O)O2)c1`, the displacement turned out to be 13.5%.

With `COc1ccc(-n2c(C)nc(=O)c(-c3ccccc3)c2C)cc1`, the displacement came to 1.6%.

Consider `NC(N)=NS(=O)(=O)c1ccc(NS(=O)(=O)c2ccccc2)cc1`, for which the displacement turned out to be 6.9%.

Regarding `Cc1ccc(NC(=O)C2CCCCC2C(=O)O)cc1Cl` (stereo not drawn), the displacement is -12.9%.

Consider `COc1ccc(OCCNC(=O)c2ccc(I)cc2)cc1`, for which the displacement was -18.5%.

For `Cc1ccccc1-n1c(O)c(C=Nc2ccc(Cl)cc2)c(=O)[nH]c1=O`, the displacement worked out at 2.6%.

For `N#Cc1cc2c(N)c(C(N)=O)sc2nc1N`, the displacement amounted to 8.9%.

Turning to `COc1ccc(C2/C(=C(\O)c3ccc(Cl)cc3)C(=O)C(=O)N2c2cccnc2)cc1OC` (stereo not drawn), the displacement is -7.9%.

On to `O=C1NN(c2ccccc2)C(=O)/C1=C\C=C\c1ccccc1`, for which the displacement was 30.9%.

`O=[N+]([O-])c1ccc(/C=N/Nc2cc(N3CCOCC3)nc(N3CCOCC3)n2)cc1`: the displacement was 8.9%.

Consider `Cc1ccccc1/C=N/NC(=O)CCc1ccccc1`, for which the displacement was -9.7%.

As to `Cc1csc(-c2cc3ccc(O)c(CN4CC5(C)CC4CC(C)(C)C5)c3oc2=O)n1` (stereo not drawn), the displacement was determined as 138%.

As to `C=CCn1c(SCC(=O)Nc2ccc(OC)cc2)nc(O)c(Cc2ccccc2)c1=O`, the displacement is -0.2%.

As to `O=Cc1cc(OCc2ccccc2)ccc1O`, the displacement was -6%.

As to `O=C(COc1ccc2ccccc2c1)NCc1ccc(Cl)cc1`, the displacement is -5.5%.

Take `COc1ccc(NC(=O)C(=O)NCc2ccc(Cl)cc2)c(OC)c1`: the displacement was 7.2%.

For the compound `O=C1c2cc3ccccc3c(-c3ccccc3)c2C(=O)N1c1cccc(O)c1`, the displacement is -1.2%.

For the origin of these results see PubChem BioAssay AID1240 (Sanford-Burnham Center for Chemical Genomics, 2008).
